According to publication PMC4077589:
Numbering of substitutions follows the chain as printed. No constants are given. Whether binding was seen depends on the method and setting. Binding seen in cells or lysates may run through a third protein. Some binding calls cover weakened binding; strength is not graded here. Where a sequence is shown, tags or fusion partners need not be part of it.

What was measured:
Assay in all cases: co-IP; FLAG immunoprecipitation from lysates of transfected HEK293 cells; lysis buffer 50 mM Tris-HCl pH 7.5, 150 mM NaCl, 1% Triton X-100; 4°C; immunoblotting
TMEM115-NT229 (human) = biological target: T1, TMEM115-NT229 (human) (UniProt Q12893)
T1 sequence: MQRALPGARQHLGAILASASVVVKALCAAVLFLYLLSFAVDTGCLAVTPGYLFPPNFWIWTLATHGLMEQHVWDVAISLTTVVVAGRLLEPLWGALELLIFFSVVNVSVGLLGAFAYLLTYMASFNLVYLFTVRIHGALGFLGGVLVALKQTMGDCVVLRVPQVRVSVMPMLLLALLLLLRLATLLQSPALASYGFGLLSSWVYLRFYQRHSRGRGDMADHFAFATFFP

TMEM115-205Δ (human) = biological target: T2, TMEM115-205Δ (human) (UniProt Q12893)
T2 sequence: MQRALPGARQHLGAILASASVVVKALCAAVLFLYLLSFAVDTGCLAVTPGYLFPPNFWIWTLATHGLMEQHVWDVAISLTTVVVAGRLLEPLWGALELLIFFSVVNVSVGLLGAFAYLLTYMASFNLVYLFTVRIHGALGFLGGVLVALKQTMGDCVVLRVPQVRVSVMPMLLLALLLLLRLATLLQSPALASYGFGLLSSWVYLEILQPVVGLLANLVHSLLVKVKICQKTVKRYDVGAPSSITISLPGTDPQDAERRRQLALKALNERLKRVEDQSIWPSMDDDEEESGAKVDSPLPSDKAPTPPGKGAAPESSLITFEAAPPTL

TMEM115-A1 (human) = biological target: T3, TMEM115-A1 (human) (UniProt Q12893)
T3 sequence: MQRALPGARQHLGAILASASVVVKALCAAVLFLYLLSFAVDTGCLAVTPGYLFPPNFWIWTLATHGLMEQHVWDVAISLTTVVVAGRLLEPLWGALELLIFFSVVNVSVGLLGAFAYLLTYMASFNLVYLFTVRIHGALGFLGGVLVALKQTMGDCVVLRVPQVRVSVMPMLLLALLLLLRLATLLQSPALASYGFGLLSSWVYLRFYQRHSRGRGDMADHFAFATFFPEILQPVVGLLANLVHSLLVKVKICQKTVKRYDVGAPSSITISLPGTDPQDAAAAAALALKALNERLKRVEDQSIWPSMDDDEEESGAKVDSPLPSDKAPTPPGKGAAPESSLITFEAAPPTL

[1] = biological target: T4, C-terminally FLAG-tagged full-length TMEM115 (TMEM115-FL-FLAG) (human) (UniProt Q12893)
T4 sequence: T3 sequence with A281E, A282R, A283R, A284R, A285Q

TMEM115-ΔCC (human) = biological target: T5, TMEM115-ΔCC (human) (UniProt Q12893)
T5 sequence: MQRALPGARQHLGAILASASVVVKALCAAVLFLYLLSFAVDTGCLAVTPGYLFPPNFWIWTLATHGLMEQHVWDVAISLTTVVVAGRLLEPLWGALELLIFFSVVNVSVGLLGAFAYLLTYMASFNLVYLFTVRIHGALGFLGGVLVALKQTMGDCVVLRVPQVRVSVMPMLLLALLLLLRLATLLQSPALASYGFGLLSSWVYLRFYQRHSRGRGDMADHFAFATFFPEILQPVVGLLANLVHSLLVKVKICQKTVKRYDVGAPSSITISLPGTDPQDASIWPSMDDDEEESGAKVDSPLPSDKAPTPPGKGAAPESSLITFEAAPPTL

TMEM115-NT205 (human) = biological target: T6, TMEM115-NT205 (human) (UniProt Q12893)
T6 sequence: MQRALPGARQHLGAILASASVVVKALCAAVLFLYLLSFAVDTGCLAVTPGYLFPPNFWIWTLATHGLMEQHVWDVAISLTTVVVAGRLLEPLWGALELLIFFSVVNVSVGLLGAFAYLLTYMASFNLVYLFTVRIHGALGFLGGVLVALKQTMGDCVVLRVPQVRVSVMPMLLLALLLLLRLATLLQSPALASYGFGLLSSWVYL

TMEM115-A2 (human) = biological target: T7, TMEM115-A2 (human) (UniProt Q12893)
T7 sequence: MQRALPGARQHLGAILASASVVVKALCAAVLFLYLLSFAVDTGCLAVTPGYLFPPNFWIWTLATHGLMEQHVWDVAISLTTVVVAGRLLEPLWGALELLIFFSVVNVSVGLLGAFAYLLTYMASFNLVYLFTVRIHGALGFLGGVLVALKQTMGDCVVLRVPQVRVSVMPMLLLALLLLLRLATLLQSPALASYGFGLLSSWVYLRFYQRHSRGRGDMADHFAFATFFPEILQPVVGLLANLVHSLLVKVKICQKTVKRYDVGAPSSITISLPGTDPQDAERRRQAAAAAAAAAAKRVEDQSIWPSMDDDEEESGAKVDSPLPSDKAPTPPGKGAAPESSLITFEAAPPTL

Measured: binding

B1: C-terminally Myc-tagged full-length TMEM115 (TMEM115–Myc) (protein, UniProt Q12893 1-351)
chain: T3 sequence with A281E, A282R, A283R, A284R, A285Q
binds: TMEM115-NT229 (human) | TMEM115-205Δ (human) | TMEM115-A1 (human) | [1] | TMEM115-ΔCC (human) | TMEM115-NT205 (human) | TMEM115-A2 (human)
